# Data from PubChem BioAssay (Tox21).
# “And” between values parts separate entries of the source, which are not always exact repeats. Equal values may be shown once. This list was built around the results that the source calls inconclusive (neither active nor inactive); the mix of calls is not that of the screen. For part of these data: Potencies beside an inconclusive call are fits to weak or partial responses and may not hold up. The source made the active and inactive calls. Unless noted, calls follow the shape of the full dose curve.
# Key:
# [1] = qHTS assay for small molecule agonists of the p53 signaling pathway - cell viability (AID 651633); details: p53RE-bla HCT-116 viability, ATP luminescence, 16 h; series mostly up to 83.3 µM; also: nearly all actives have a fitted effect of over 30% in size; also: potency is read from the fitted curve at half-maximal effect
# Method in brief: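 p53RE-bla cells, seeded at 4,000 per well and rested 5 h at 37 C/5% CO2, received compounds in DMSO for 16 h at 37 C. CellTiter-Glo was then added, and luminescence was read after 30 min at room temperature to gauge cytotoxicity.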
# [2] = qHTS assay for small molecule disruptors of the mitochondrial membrane potential (AID 720635; active = well fitted curve in the direction sought with a large enough effect in the repeat runs; inconclusive = weak or mixed curves; inactive = no such curve, though single readings can be large; an effect the other way counts as inactive or inconclusive; also: potency is read from the fitted curve at half-maximal effect; as to ratio activity, negative = MMP loss: % is scaled to controls: 0 for no effect and ±100 for the full control effect); details: HepG2 mitochondrial membrane potential, Mito-MPS dye ratio
# Method in brief: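 HepG2 cells (2,000/well) attached overnight at 37C, then took compound for 1 hr at 37C, 5% CO2. Mito-MPS dye was added for 30 min; fluorescence was read at 490/535 nm (monomers) and 540/590 nm (aggregates).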
# [3] = target: Glucocorticoid receptor (Homo sapiens) (UniProt P04150); assay: qHTS assay to identify small molecule antagonists of the glucocorticoid receptor (GR) signaling pathway (AID 720692; active = well fitted inhibition curve with a large enough effect in the signal ratio in the repeat runs, not every such curve was filed as active; inconclusive = weak or mixed curves, or effect the other way; inactive = no such curve, though single readings can be large or run the other way; the % refers to the signal ratio; also: potency is read from the fitted curve at half-maximal effect; as to activity change, negative = inhibition: % is scaled to controls: 0 for no effect and ±100 for the full control effect); details: GR-bla HeLa, beta-lactamase FRET ratio, dexamethasone-stimulated, 18 h
# UniProt P04150, sequence (P04150 whole entry, looked up): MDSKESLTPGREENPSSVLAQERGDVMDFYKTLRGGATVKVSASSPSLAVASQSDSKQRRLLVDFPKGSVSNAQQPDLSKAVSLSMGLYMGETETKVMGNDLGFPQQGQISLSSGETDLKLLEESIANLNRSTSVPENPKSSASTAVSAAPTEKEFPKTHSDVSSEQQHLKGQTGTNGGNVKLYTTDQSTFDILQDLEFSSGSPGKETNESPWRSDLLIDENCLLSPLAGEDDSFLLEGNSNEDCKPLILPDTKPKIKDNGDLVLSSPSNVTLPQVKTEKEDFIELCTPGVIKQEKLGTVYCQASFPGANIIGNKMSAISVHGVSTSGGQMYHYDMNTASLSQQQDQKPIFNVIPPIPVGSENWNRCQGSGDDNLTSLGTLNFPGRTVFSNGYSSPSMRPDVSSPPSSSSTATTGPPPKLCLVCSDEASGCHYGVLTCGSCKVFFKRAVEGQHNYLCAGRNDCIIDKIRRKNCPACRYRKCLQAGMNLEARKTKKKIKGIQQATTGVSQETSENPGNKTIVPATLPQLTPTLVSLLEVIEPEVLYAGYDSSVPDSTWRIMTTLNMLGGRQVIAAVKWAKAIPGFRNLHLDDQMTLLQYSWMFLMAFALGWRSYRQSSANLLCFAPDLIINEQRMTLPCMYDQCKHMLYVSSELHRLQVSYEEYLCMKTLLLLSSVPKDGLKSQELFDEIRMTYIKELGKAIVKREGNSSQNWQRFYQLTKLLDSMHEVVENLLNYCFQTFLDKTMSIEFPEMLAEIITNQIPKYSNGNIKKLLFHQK
# Method in brief: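 GR-bla HeLa cells (beta-lactamase reporter under glucocorticoid response element) were pre-plated 4 h at 37 C, treated with compounds plus 5 nM dexamethasone (final) for 18 h, then read by LiveBLAzer B/G FRET fluorescence after 2 h.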
# [4] = qHTS assay to identify small molecule antagonists of the glucocorticoid receptor (GR) signaling pathway - cell viability counter screen (AID 720693; active = well fitted curve in the direction sought with a large enough effect in the repeat runs; inconclusive = weak or mixed curves; inactive = no such curve, though single readings can be large; an effect the other way counts as inactive or inconclusive; also: potency is read from the fitted curve at half-maximal effect; nearly all actives have a fitted effect of over 55% in size); details: GR-bla HeLa viability, CellTiter-Glo luminescence, 18 h, with 5 nM dexamethasone present; viability change, negative = cytotoxic: at 58.5 µM (top of the series)
# [5] = qHTS assay for small molecule disruptors of the mitochondrial membrane potential - cell viability (AID 720634); details: HepG2 viability, ATP luminescence (CellTiter-Glo), 1 h; series mostly up to 83.2 µM; also: nearly all actives have a fitted effect of over 20% in size; also: potency is read from the fitted curve at half-maximal effect
# Method in brief: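 HepG2 cells seeded overnight at 37 C, then exposed to compound or DMSO for 1 hr at 37 C, 5% CO2. m-MPI dye added, then CellTiter-Glo for 30 min at room temperature; viability read as ATP luminescence.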
# [6] = qHTS assay for small molecules that induce genotoxicity in human embryonic kidney cells expressing luciferase-tagged ATAD5 - cell viability (AID 651634); details: HEK293T ATAD5-luc cells viability, CellTiter-Fluor, 15.5 h; series mostly up to 83.3 µM; also: % is scaled to controls: 0 for no effect and ±100 for the full control effect; nearly all actives have a fitted effect of over 25% in size
# Method in brief: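 HEK293T cells expressing luciferase-tagged ATAD5 were exposed to compound or DMSO for 15.5 hr at 37C, 5% CO2. Viability was then read as live-cell protease activity by CellTiter-Fluor fluorescence after 30 min at 37C.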
# [7] = target: Glucocorticoid receptor (Homo sapiens) (UniProt P04150); assay: qHTS assay to identify small molecule agonists of the glucocorticoid receptor (GR) signaling pathway (AID 720691; active = well fitted activation curve with a large enough effect in the signal ratio in the repeat runs, not every such curve was filed as active; inconclusive = weak or mixed curves, or effect the other way; inactive = no such curve, though single readings can be large or run the other way; the % refers to the signal ratio; also: % is scaled to controls: 0 for no effect and ±100 for the full control effect); details: GR-bla HeLa, beta-lactamase reporter ratio, 18 h; activation: at 62.4 µM (top of the series) unless noted
# Method in brief: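 GR-bla HeLa cells (beta-lactamase reporter under glucocorticoid response element) were plated 4 h at 37 C/5% CO2, given compounds in DMSO, and incubated 18 h at 37 C. LiveBLAzer B/G FRET substrate was added for 2 h at room temperature, then fluorescence intensity read.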
# [8] = ratio activity, negative = MMP loss: at 83.2 µM (top of the series) unless noted
# [9] = activity change, negative = inhibition: at 58.5 µM (top of the series) unless noted
# Tags tell the direction and shape of the fitted curve or compound fluorescence and quenching.
smiles,measurement,setting,value
CC(C)(C)CC(C)(C)c1ccc(O)c(-n2nc3ccccc3n2)c1,Potency,[1],"inconclusive: 23.7 µM [cytotoxic, partial curve, poor fit] and active: 49.2 µM and active: 48.6 µM"
same,Potency,[2]; [8],active: 10.6 µM and active: 24.7 µM and active: 30.6 µM
same,Potency,[3]; [9],"inconclusive: 3.01 µM [inhibitor, partial curve]"
same,"activity change, negative = inhibition",[3]; [9],inconclusive: -7.03%
same,Potency,[4],"inconclusive: 26.8 µM [cytotoxic, single point] and active: 49.7 µM and inconclusive: 49 µM [cytotoxic, partial curve]"
CCCCCCCCCCCCCCCC,Potency,[1],inactive
same,Potency,[5],inactive
same,Potency,[3]; [9],inactive
O=c1c(O)c(-c2ccc(O)cc2O)oc2cc(O)cc(O)c12,Potency,[6],inactive
same,Potency,[2]; [8],active: 22.9 µM
same,Potency,[3]; [9],inactive
O=C(O)C[C@H](NC(=O)OCc1ccccc1)C(=O)O,Potency,[6],inactive
same,Potency,[2]; [8],inactive
OC1CCCC1,Potency,[6],inactive
same,"ratio activity, negative = MMP loss",[2]; at 83.2 µM (top of the series),inactive: 10.9%
same,"ratio activity, negative = MMP loss",[2]; [8],inconclusive: 17.2%
same,"activity change, negative = inhibition",[3]; [9],inconclusive: 11.4%
same,"activity change, negative = inhibition",[3]; at 58.5 µM (top of the series),inactive: -0.77%
CC(=O)Nc1cc(S(=O)(=O)O)cc2cc(S(=O)(=O)O)c(N=Nc3ccccc3)c(O)c12,Potency,[5],"inconclusive: 61.1 µM [cytotoxic, partial curve, poor fit]"
same,Potency,[2]; [8],"inconclusive: 54.5 µM [falling, partial curve, poor fit]"
Cc1cc(C)nc(NS(=O)(=O)c2ccc(N)cc2)n1,Potency,[6],inactive
same,Potency,[2]; [8],"inconclusive: 9.8 µM [activator, partial curve, poor fit]"
same,"ratio activity, negative = MMP loss",[2]; [8],inconclusive: 4.44%
same,Potency,[7],inactive
